According to PubChem BioAssay AID686978 (National Center for Advancing Translational Sciences (NCATS), 2013):
Where “and” joins values, the source holds several entries; their conditions need not be identical. Equal values may be shown once. The whole screen tested about 420,000 compounds, of which about 64,000 (15%) were called active. The shares of active, inactive and inconclusive entries below differ from those in the screen. The call rests on the fitted dose curve; in most records, active means well fitted inhibition curve with a large enough effect; inconclusive means small, poorly fitted or top-dose-only effect; inactive means flat fitted curve, though single readings scatter. Potencies of inconclusive entries are doubtful fits and often do not repeat.

Test: qHTS for Inhibitors of human tyrosyl-DNA phosphodiesterase 1 (TDP1): qHTS in cells in absence of CPT; further: nearly all actives have a fitted effect of over 55% in size
Conditions: DT40 Tdp1-/- hTDP1 cells, no CPT, ATP luminescence, 48 h; activity change, negative = growth inhibition: at 46.2 µM (top of the series)
How it was run: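 Camptothecin absent (DMSO only). Human TDP1-complemented DT40 knockout cells, 400 cells/well, 37 °C for minimum 48 hr; ATP measured via CellTiter-Glo, 30 min dark incubation, luminescence.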
On the % scale 0 is the no-effect control and ±100 the full control effect; potency means the concentration at half of the fitted maximal effect; tags describe the fitted curve by direction and shape.

| Structure (SMILES) | Potency | activity change, negative = growth inhibition |
| --- | --- | --- |
| Cc1c(C(=O)NCc2cccs2)sc(=O)n1Cc1ccc(S(=O)(=O)N(C)C)cc1 | active: 23.1 µM | – |
| CN(C)CCCNC(=O)CC1C[C@H](C(=O)N2CCCCC2)[C@@]2(CCc3ccccc3)c3[nH]c4ccccc4c3CCN2C1=O (stereo partly specified) | active: 13 µM | – |
| COc1cccc(NC(=O)CSc2nc3ccccc3n2C)c1 | inconclusive: 10.3 µM [inhibitor, partial curve] and inconclusive: 25.9 µM [inhibitor, single point] | – |
| COC(=O)c1ccc(C(=O)OC)c(NC(=S)N2CCCCC2C)c1 (stereo unspecified) | inconclusive: 3.26 µM [inhibitor, partial curve, poor fit] | – |
| Brc1ccc(-c2csc(-c3ccncc3)n2)cc1 | – | inactive: -16.2% |
| CCC(=O)N1CCc2cc(S(=O)(=O)CCC(=O)N3CCN(c4cc(C)ccc4C)CC3)ccc21 | inconclusive: 6.51 µM [inhibitor, partial curve] | – |
| Nc1nc(N)nc(-c2ccccc2-c2nc(N)nc(N)n2)n1 | – | inactive: -11.1% |
| Cc1cccc(C2c3[nH]c4ccccc4c3CCN2C(=O)Cc2n[nH]c(C)n2)n1 (stereo unspecified) | – | inactive: -0.381% |
| COc1ccc(OC)c(NC(=O)CN(C)S(=O)(=O)c2ccc3[nH]c4c(c3c2)CCCC4)c1 | active: 20.6 µM | – |
| CCCCNc1c(CCc2ccccc2)nc2nc(C)cc(C)n12 | inconclusive: 16.4 µM [inhibitor, single point] | – |
| Cc1ccc(Cn2nnc3c(=O)[nH]c(C4CCN(S(=O)(=O)c5ccc(S(=O)(=O)NC6CC6)cc5)CC4)nc32)cc1 | inconclusive: 29.1 µM [inhibitor, single point] | – |
| COc1cc2cnc(-c3ccccc3)c(-c3ccc(C#N)cc3)c2cc1OC | active: 16.4 µM | – |
| CCOc1ccc(NC(=O)c2c(NC(=O)Cc3ccccc3)sc3c2CCC(C)C3)cc1 (stereo unspecified) | active: 20.6 µM | – |
| C#CC(=O)N(c1ccc(OC)c(OC)c1)C(C(=O)NC1CCCC1)c1cccs1 (stereo unspecified) | active: 0.651 µM | – |
| CCOC(=O)c1cnn(-c2ccccc2)c1NC(=O)CSc1nnc(-c2cccs2)n1CC | inconclusive: 29.1 µM [inhibitor, single point] | – |
| COc1ccc(Cn2nnc(C(=O)Nc3cc(OC)ccc3OC)c2N)cc1 | inconclusive: 29.1 µM [inhibitor, partial curve, poor fit] | – |
| CCn1ccnc1CN(C)Cc1nc(CCC(C)C)no1 | – | inactive: -29.7% |
| NC1=NC[C@H](Cc2ccccc2)N1CCc1cc(C(F)(F)F)cc(C(F)(F)F)c1 | active: 14.6 µM | – |
| CC(=O)NS(=O)(=O)c1ccc(NC(=S)NC(=O)C2CCC2)cc1 | – | inactive: 29.6% |
| CCCC(=NCc1ccccc1)C1=C(O)C(C(=O)OC)C(C)(C)CC1=O (stereo unspecified) | inconclusive: 20.6 µM [inhibitor, single point] | – |
| C=CCN1C(=O)/C(=C2/Sc3ccccc3N2C)SC1=Nc1ccccc1C | inconclusive: 23.1 µM [inhibitor, partial curve] | – |
| CCOc1ccc(C(=O)NCC(c2ccc3c(c2)OCO3)N2CCN(c3ccccc3F)CC2)cc1 (stereo unspecified) | active: 20.6 µM | – |
| Cc1onc(-c2ccccc2Cl)c1C(=O)OCN1C(=O)c2ccccc2C1=O | inconclusive: 25.9 µM [inhibitor, single point] | – |
| CC1(C)CC(C(CCN(Cc2ccccc2)C(=O)c2ccco2)c2ccc(F)cc2)CCO1 (stereo unspecified) | inconclusive: 18.4 µM [inhibitor, single point] | – |

| Structure (SMILES) | Potency | activity change, negative = growth inhibition |
| --- | --- | --- |
| O=C(CSc1nc2ccc(S(=O)(=O)N3CCOCC3)cc2[nH]1)N1CCOCC1 | inconclusive: 28.2 µM [inhibitor, single point] | – |
| CCOc1ccc(NC(=O)c2c(NCc3ccc(C)o3)sc3c2CCC(C)C3)cc1 (stereo unspecified) | inconclusive: 16.4 µM [inhibitor, single point] | – |
| Clc1ccc2nc(-c3ccccc3)c(Cc3ccsc3)n2c1 | inconclusive: 18.4 µM [inhibitor, single point] | – |
| C[C@@H]1OC(Nc2ccc(N=Nc3ccccc3)cc2)[C@H](O)[C@H](O)[C@H]1O (stereo partly specified) | inconclusive: 25.9 µM [inhibitor, single point] | – |
| Cc1noc(C)c1COc1ccc2ccc(=O)oc2c1 | – | inactive: 1.31% |
| O=c1c2ccccc2c(C=NCCCN2CCOCC2)c(O)n1Cc1ccc2c(c1)OCO2 | inconclusive: 29.1 µM [inhibitor, single point] | – |
| Cc1nnc(N2CCC(C(=O)NC3CCCCC3)CC2)c2nn(-c3ccc(Cl)cc3)c(C)c12 | – | inactive: -6.49% |
| O=C(CSc1nc2ccccc2[nH]1)c1c[nH]c2ccccc12 | – | inconclusive: -32.9% [inhibitor] |
| CCn1c(=O)cc(SCC(=O)NCCc2cc(OC)ccc2OC)c2ccccc21 | active: 20.6 µM | – |
| C[C@H](O)[C@@H]1CN2CCc3c([nH]c4ccccc34)[C@@H]2C[C@@H]1N(C)C(=O)Nc1ccc(Br)cc1 | inconclusive: 0.651 µM [inhibitor, full curve, poor fit] | – |
| CCN(CC)c1ccc(NC(=O)CNCc2ccccc2Cl)c(C)c1 | – | inactive: -7.28% |
| Cc1ccc(CNC(=O)c2cc(-c3ccccc3)nn2Cc2cc(C)no2)cc1 | inconclusive: 29.1 µM [inhibitor, partial curve, poor fit] | – |
| CC(=O)NN(O)C1N(C)C(=O)N(Cc2ccccc2)C1(C)C (stereo unspecified) | – | inactive: -9.11% |
| COc1ccc(C(C)(O)c2nc(-c3cnc4ccccc4c3)cs2)cc1 (stereo unspecified) | inconclusive: 23.1 µM [inhibitor, single point] | – |
| Cc1noc(-c2ccc(NCc3ccccc3)c([N+](=O)[O-])c2)n1 | inconclusive: 16.4 µM [inhibitor, single point] | – |
| CC(C)CNC(=O)CC(=O)N/N=C/c1cccs1 | – | inactive: -11.7% |
| O=C(NCC1CC1)Nc1ccccc1 | – | inactive: -22.6% |
| COc1cccc(Nc2nc3ccc(C(=O)c4ccccc4)cc3n3cnnc23)c1 | inconclusive: 18.4 µM [inhibitor, partial curve] | – |
| O=C(NCC1CCCO1)c1ccc(COc2ccc(Cl)cc2)cc1 (stereo unspecified) | inconclusive: 25.9 µM [inhibitor, single point] | – |
| CC(C)C[C@@H]1COc2cccc(N3CCSCC3)c2S(=O)(=O)N1 | – | inactive: -27.8% |
| COc1ccc(NC(=O)Cn2c(=O)n(CCc3ccccc3)c(=O)c3ccccc32)cc1 | inconclusive: 23.1 µM [inhibitor, single point] | – |
| Cc1c(C(=O)Nc2ccncc2)sc2nc(-c3ccc(F)cc3)cn12 | active: 5.17 µM | – |
| COc1ccc(NC(=O)c2ncn[nH]2)cc1 | – | inactive: -14.2% |
| Cc1cccc(C)c1-n1nnnc1C(c1ccnc2ccccc12)N(CCN(C)C)Cc1ccccc1 (stereo unspecified) | inconclusive: 18.4 µM [inhibitor, single point] | – |

| Structure (SMILES) | Potency | activity change, negative = growth inhibition |
| --- | --- | --- |
| CCN1CCN(S(=O)(=O)CC2(C)C3CCC2(C)C(=O)C3Br)CC1 (stereo unspecified) | – | inactive: 0.913% |
| CCCCNC(=O)CCC(=O)Nc1ccc2nc(N3CCN(C)CC3)cc(C)c2c1 | – | inactive: -2.45% |
| CC1C(=O)Nc2ccc(S(=O)(=O)NCc3ccc(Cl)cc3)cc2NC1=O (stereo unspecified) | inconclusive: 29.1 µM [inhibitor, single point] | – |
| Cc1ccccc1OCC(=O)Nc1cc(-c2cccc(Br)c2)nn1-c1ccccc1 | inconclusive: 9.2 µM [inhibitor, partial curve] | – |
| CN(C)C(=O)c1ccc(NC(=O)COC(=O)C2CCN(S(=O)(=O)c3ccc4c(c3)OCCO4)CC2)cc1 | – | inactive: 3.94% |
| CCCCNC(=O)c1c(C)oc2ncn(CC(C)C)c(=O)c12 | inconclusive: 23.1 µM [inhibitor, single point] | – |
| COc1cccc(-n2nc(C(=O)N3CCN(Cc4ccccc4)CC3)c3ccccc3c2=O)c1 | inconclusive: 18.4 µM [inhibitor, single point] | – |
| O=[N+]([O-])c1ccc(SCCO)nc1SCCO | inconclusive: 29.1 µM [inhibitor, single point] | – |
| COc1ccccc1NS(=O)(=O)c1cccc(C(=O)N2CCCCCCC2)c1 | inconclusive: 20.6 µM [inhibitor, single point] | – |
| COc1ccc(C(=O)N(Cc2ccco2)Cc2ccco2)cc1 | inconclusive: 18.4 µM [inhibitor, single point] | – |
| Cc1cccc(NC(=O)c2ccccc2SCc2ccc(F)cc2)n1 | active: 14.6 µM | – |
| O=S(=O)(Oc1ccccc1N1CCCCC1)c1ccccc1 | inconclusive: 29.1 µM [inhibitor, single point] | – |
| CN(c1ccc(C(=O)NCc2ccccc2)cc1)S(C)(=O)=O | – | inactive: -10.3% |
| Nc1c(-c2nc(-c3ccncc3)no2)nnn1CC(=O)Nc1ccccc1 | inconclusive: 10.3 µM [inhibitor, partial curve] | – |
| COc1cc2ccccc2cc1C(=O)Nc1ccc(C)cn1 | – | inactive: -20.4% |
| CCOC(=O)/C=c1\s/c(=C\c2c(OC)ccc3ccccc23)c(=O)n1CC(=O)NCC1CCCO1 (stereo unspecified) | active: 20.6 µM | – |
| C[C@H]1C=C(C(=O)N2CCN(Cc3ccc4c(c3)OCO4)CC2)O[C@@H](OCc2ccc(CO)cc2)C1 | – | inactive: -25% |
| CC1CCCC(NC(=O)COC(=O)/C=C/c2ccco2)C1C (stereo unspecified) | – | inactive: 0.163% |
| Cc1ccc2cc3cc(C(=O)N(CC(=O)NC4CCCC4)c4cccc(C)c4C)sc3nc2c1 | active: 18.4 µM | – |
| Cc1noc(/C=C/c2ccccc2F)c1S(=O)(=O)N1CCC(C(=O)N(C)Cc2ccco2)CC1 | inconclusive: 18.4 µM [inhibitor, single point] | – |
| CN1CCC(OC(=O)COc2ccc(F)cc2)CC1 | – | inactive: -3.67% |
| O=S1(=O)N[C@H](Cc2ccccc2)COc2cccc(N3CCC[C@@H]3CO)c21 | inconclusive: 23.1 µM [inhibitor, single point] | – |
| COC(=O)c1c(N)n(-c2cc(Cl)cc(Cl)c2)c2nc3ccccc3nc12 | active: 9.2 µM | – |
